Results as given in patent US20140212431A1 (Genentech, published 2014).

Assays:
[1] = molecular target: T1, recombinant human PCSK9 with a histidine (His)8 C-terminal tag (human, UniProt Q8NBP7 31-692, biotinylated in vitro (EZ-link Sulfo-NHS-biotinylation kit) where the assay names biotinylated PCSK9); test: biolayer interferometry (Octet RED 384), EGF-Fc on Fc biosensor, PCSK9 0-500 nM, 1 mM CaCl2, steady state fit
T1 construct: also called rPCSK9; biotinylated PCSK9

[2] = molecular target: T1, recombinant human PCSK9 with a …; test: SPR (Biacore 3000), EGF-Fc captured by anti-human Fc, PCSK9 injected, 10 mM EDTA
[3] = molecular target: T1, recombinant human PCSK9 with a …; test: SPR (Biacore 3000), EGF-Fc captured by anti-human Fc, PCSK9 injected, 1 mM CaCl2
[4] = molecular target: T1, recombinant human PCSK9 with a …; test: competition ELISA: Fc fusion protein mixed with biotinylated PCSK9, added to rLDLR-coated plate
[5] = molecular target: T1, recombinant human PCSK9 with a …; test: biolayer interferometry; end of the range tied to EGF52-Fc by Table II (900/120)
[6] = molecular target: T1, recombinant human PCSK9 with a …; test: cell-based or functional assay

T1 sequence (Q8NBP7 other isoform, or with tags, fused parts or gaps limits assumed): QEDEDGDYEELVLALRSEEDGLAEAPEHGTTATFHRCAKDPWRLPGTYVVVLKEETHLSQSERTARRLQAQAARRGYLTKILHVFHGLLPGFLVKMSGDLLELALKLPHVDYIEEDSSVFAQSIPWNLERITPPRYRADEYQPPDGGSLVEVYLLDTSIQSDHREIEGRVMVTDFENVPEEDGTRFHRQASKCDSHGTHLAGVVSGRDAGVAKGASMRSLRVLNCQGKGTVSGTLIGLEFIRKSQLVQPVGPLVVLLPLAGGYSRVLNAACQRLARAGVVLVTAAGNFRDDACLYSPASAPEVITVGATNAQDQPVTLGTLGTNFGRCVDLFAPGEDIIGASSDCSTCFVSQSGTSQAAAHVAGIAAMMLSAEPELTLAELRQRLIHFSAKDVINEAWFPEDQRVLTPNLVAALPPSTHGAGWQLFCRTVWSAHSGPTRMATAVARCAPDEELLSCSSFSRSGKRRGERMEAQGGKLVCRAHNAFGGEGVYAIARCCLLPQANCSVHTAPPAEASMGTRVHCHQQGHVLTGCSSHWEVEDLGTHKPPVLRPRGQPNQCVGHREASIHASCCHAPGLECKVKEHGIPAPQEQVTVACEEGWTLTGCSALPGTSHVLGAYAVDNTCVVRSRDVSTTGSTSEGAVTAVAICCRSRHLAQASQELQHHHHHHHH

Binder | Kd [1] | Kd [2] | Kd [3] | IC50 [4] | fold increase of affinity against EGFwt-Fc [5] | koff [2] | kon [2] | koff [3] | kon [3] | EC50: concentration that restored LDLR levels on the HepG2 cell surface to 50% of control [6]
EGF59-Fc fusion protein (Fc fusion, The EGF(A) domain has three disulfide bonds (Cys I-III, II-IV, V-VI). In the assay the protein was a homodimer joined through the IgG1 Fc, which is not given here., not shown: Fc domain of human IgG1 (C222-K443 as printed, which is Cys226-Lys447 in EU numbering)) GTNECLDNLGGCSHVCRKLKIGYECLCPDGFQLVAQRRCEGGGSGAAQVTNKTHT | 50 nM | 135 nM | 111 nM | – | – | – | – | – | – | –
EGF66-Fc fusion protein (Fc fusion, also called EGF66-Fc (MUT); not shown: Fc domain of human IgG1 (C222-K443)) GTNECLANLGGCSHICRKLKIGYECLCPDGFQLVAQRRCEGGGSGAAQVTNKTHT | 56 nM | 72 nM | 71 nM | – | – | – | – | – | – | 1600 nM

Continued by falling Kd [1], values first:

Kd [1] | Kd [2] | Kd [3] | IC50 [4] | fold increase of affinity against EGFwt-Fc [5] | koff [2] | kon [2] | koff [3] | kon [3] | EC50: concentration that restored LDLR levels on the HepG2 cell surface to 50% of control [6] | Binder
120 nM | 238 nM | 113 nM | 0.7 nM | 7.5 to 33 fold | 0.022 s⁻¹ | 90000 M⁻¹ s⁻¹ | 0.02 s⁻¹ | 181000 M⁻¹ s⁻¹ | – | EGF52-Fc fusion protein (Fc fusion, Three disulfide bonds within the EGF domain. The Fc fusion is a homodimer; one chain is given., not shown: It is probably EU C226-K447, 222 residues, following the linker's THT) GTNECLSNLGGCSHICRKLKIGYECLCPDGFQLVAQRRCEGGGSGAAQVTNKTHT
27 nM | 224 nM | 121 nM | – | – | – | – | – | – | – | EGF75-Fc fusion protein (Fc fusion, Three disulfide bonds within the EGF domain. The Fc fusion is a homodimer; one chain is given., not shown: It is probably EU C226-K447, 222 residues, following the linker's THT) GTNECLKNLGGCSHVCKKLKIGYECLCPDGFQLVAQRRCEGGGSGAAQVTNKTHT
